# Test results from patent US20220185900A1 (Regeneron, published 2022).
# T1: Macaca fascicularis (mf) RET.mmh (Macaca fascicularis)
# T1 construct: also called monkey RET
# T1 chain: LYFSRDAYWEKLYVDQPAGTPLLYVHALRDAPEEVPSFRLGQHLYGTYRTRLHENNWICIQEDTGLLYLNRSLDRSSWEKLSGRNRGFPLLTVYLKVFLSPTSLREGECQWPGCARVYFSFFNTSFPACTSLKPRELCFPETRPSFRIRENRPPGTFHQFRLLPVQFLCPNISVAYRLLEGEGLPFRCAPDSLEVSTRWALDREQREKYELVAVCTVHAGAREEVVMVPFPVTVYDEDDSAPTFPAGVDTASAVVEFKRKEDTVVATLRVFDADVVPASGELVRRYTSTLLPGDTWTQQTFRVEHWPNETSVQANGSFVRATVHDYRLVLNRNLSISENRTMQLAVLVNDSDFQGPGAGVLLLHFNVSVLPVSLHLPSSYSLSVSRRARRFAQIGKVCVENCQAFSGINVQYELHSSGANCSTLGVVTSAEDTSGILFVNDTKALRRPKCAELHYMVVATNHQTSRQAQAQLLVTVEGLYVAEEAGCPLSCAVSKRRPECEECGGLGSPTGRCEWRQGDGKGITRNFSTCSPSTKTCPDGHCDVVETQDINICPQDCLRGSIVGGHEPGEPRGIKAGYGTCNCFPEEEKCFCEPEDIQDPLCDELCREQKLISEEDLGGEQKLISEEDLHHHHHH
# How the values were obtained:
# hRET.mmh [1] = molecular target: T2, hRET.mmh (human, UniProt P07949 partial chain, biotinylated in the ELISA of Example 4 (biot-hRET.mmh); not in the SPR of Example 3); assay: competition sandwich ELISA: 1 nM biot-hRET.mmh + antibody, plate-coated GDNF/GFRα1 co-complex
# T2 construct: also called biot-hRET.mmh; soluble monomeric human RET
# Method: The ability of anti-RET antibodies to block the binding of human RET to pre-complexed plate bound GDNF:GFRα1 was assessed using a competition sandwich ELISA.
# Antibody-RET mixtures were incubated for 1 hour at RT and then transferred to microtiter plates previously coated with the hGDNF/hGFRα1 co-complex. Binding was allowed to proceed for 1 hr at RT followed by extensive washing. […] Plates were read at 450 nm and data analysis used a sigmoidal dose-response model within Prism™ software.
# The absorbance values of the wells containing the highest concentration for each antibody were used to determine the blocking percent at maximum concentration antibody tested.
# hRET.mmh [2] = molecular target: T2, hRET.mmh; assay: SPR Biacore T200, mAb capture, 25 C
# Method: (§1) Binding affinities and kinetic constants of human anti-RET antibodies were determined by surface plasmon resonance (Biacore T200) at […] (Tables 2-3). […] Binding equilibrium dissociation constants (KD) and dissociative half-lives (t_{1/2}) were calculated from the kinetic rate constants as: KD [M]=kd/kₐ; and t_{1/2}(min)=(ln2/(60*kd). Calculations were performed using BiacoreT200 evaluation software v1.0.
# hRET.mFc [3] = molecular target: T3, hRET.mFc (human); assay: SPR Biacore T200, mAb capture, 25 C
# T3 construct: also called dimeric human RET
# Method: as §1
# [4] = molecular target: T1, Macaca fascicularis (mf) RET.mmh; assay: SPR Biacore T200, mAb capture, 25 C
# Method: as §1
# hRET.mmh [5] = molecular target: T2, hRET.mmh; assay: SPR Biacore T200, mAb capture, 37 C
# Method: as §1
# hRET.mFc [6] = molecular target: T3, hRET.mFc; assay: SPR Biacore T200, mAb capture, 37 C
# Method: as §1
# [7] = molecular target: T1, Macaca fascicularis (mf) RET.mmh; assay: SPR Biacore T200, mAb capture, 37 C
# Method: as §1
binder,measurement,setting,value
"H4H8048P (antibody, human IgG4, V domains shown, human IgG4 Fc (H4H prefix)) VH: QVQLVESGGGVVQPGRSLRLSCAASGFTFSNYGMVWVRQAPGKGLEWVAFIWYDGSDKYYVD[sequence of about 20 residues omitted]MNSLRAEDTAVYFCARSGPSRHVFDIWGQGTMVTVSS VL: not shown",% Max Blocking,hRET.mmh [1],96%
same,IC50,hRET.mmh [1],< 0.25 nM
same,Kd,hRET.mmh [2],1.94 nM
same,koff,hRET.mmh [2],0.000493 s⁻¹
same,kon,hRET.mmh [2],254000 M⁻¹ s⁻¹
same,t½,hRET.mmh [2],23 min
same,Kd,hRET.mFc [3],1.16 nM
same,koff,hRET.mFc [3],0.000267 s⁻¹
same,kon,hRET.mFc [3],231000 M⁻¹ s⁻¹
same,t½,hRET.mFc [3],43 min
same,Kd,[4],2.33 nM
same,koff,[4],0.000535 s⁻¹
same,kon,[4],230000 M⁻¹ s⁻¹
same,t½,[4],22 min
same,Kd,hRET.mmh [5],7.14 nM
same,koff,hRET.mmh [5],0.00242 s⁻¹
same,kon,hRET.mmh [5],339000 M⁻¹ s⁻¹
same,t½,hRET.mmh [5],5 min
same,Kd,hRET.mFc [6],3.89 nM
same,koff,hRET.mFc [6],0.00109 s⁻¹
same,kon,hRET.mFc [6],280000 M⁻¹ s⁻¹
same,t½,hRET.mFc [6],11 min
same,Kd,[7],8.6 nM
same,koff,[7],0.00254 s⁻¹
same,kon,[7],295000 M⁻¹ s⁻¹
same,t½,[7],5 min
